# From the supplement of paper PMC8728848
# This is one part of the list.
# What was measured:
# Assay in all cases: glycan array binding signal (z-score within array); higher = stronger binding
# Details in all cases: glycan notation: IUPAC condensed, linker removed
# [1] = target: Fuc(a1-2)Gal
# Summary of the method: (§1)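 Glycan array data were curated from 3228 arrays in the Consortium for Functional Glycomics database and kept only where the protein sequence was available. Glycan names were converted to IUPAC-condensed notation, and columns mapping to the same glycan were averaged. The binding signal is a within-array Z-score, averaged across arrays of the same protein sequence at different concentrations or buffers and across linkers. Negative Z-scores can be read as non-binding.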
# [2] = target: Fuc(a1-2)Gal(b1-3)GalNAc
# Summary of the method: as §1
# [3] = target: Fuc(a1-2)Gal(b1-3)GalNAc(a1-3)[Fuc(a1-2)]Gal(b1-4)Glc
# Summary of the method: as §1
# [4] = target: Fuc(a1-2)Gal(b1-3)GalNAc(a1-3)[Fuc(a1-2)]Gal(b1-4)GlcNAc
# Summary of the method: as §1
# [5] = target: Fuc(a1-2)Gal(b1-3)GalNAc(b1-3)Gal
# Summary of the method: as §1
# [6] = target: Fuc(a1-2)Gal(b1-3)GalNAc(b1-3)Gal(a1-4)Gal(b1-4)Glc
# Summary of the method: as §1
# [7] = target: Fuc(a1-2)Gal(b1-3)GalNAc(b1-4)[Neu5Ac(a2-3)]Gal(b1-4)Glc
# Summary of the method: as §1
# [8] = target: Fuc(a1-2)Gal(b1-3)GlcNAc
# Summary of the method: as §1
# [9] = target: Fuc(a1-2)Gal(b1-3)GlcNAc(b1-2)Man(a1-3)[Fuc(a1-2)Gal(b1-3)GlcNAc(b1-2)Man(a1-6)]Man(b1-4)GlcNAc(b1-4)GlcNAc
# Summary of the method: as §1
# [10] = target: Fuc(a1-2)Gal(b1-3)GlcNAc(b1-2)Man(a1-3)[Fuc(a1-2)Gal(b1-3)GlcNAc(b1-2)Man(a1-6)]Man(b1-4)GlcNAc(b1-4)[Fuc(a1-6)]GlcNAc
# Summary of the method: as §1
# [11] = target: Fuc(a1-2)Gal(b1-3)GlcNAc(b1-3)Gal(b1-4)Glc
# Summary of the method: as §1
# [12] = target: Fuc(a1-2)Gal(b1-3)GlcNAc(b1-3)GalNAc
# Summary of the method: as §1
# [13] = target: Fuc(a1-2)Gal(b1-3)GlcNAc(b1-3)[Fuc(a1-2)Gal(b1-3)GlcNAc(b1-6)]GalNAc
# Summary of the method: as §1
# [14] = target: Fuc(a1-2)Gal(b1-3)GlcNAc(b1-3)[Gal(b1-4)GlcNAc(b1-6)]Gal(b1-4)Glc
# Summary of the method: as §1
# [15] = target: Fuc(a1-2)Gal(b1-3)GlcNAc(b1-3)[Neu5Ac(a2-6)Gal(b1-4)GlcNAc(b1-6)]Gal(b1-4)Glc
# Summary of the method: as §1
# [16] = target: Fuc(a1-2)Gal(b1-3)GlcNAc6S
# Summary of the method: as §1
# [17] = target: Fuc(a1-2)Gal(b1-3)[Fuc(a1-4)]GlcNAc
# Summary of the method: as §1
# [18] = target: Fuc(a1-2)Gal(b1-3)[Fuc(a1-4)]GlcNAc(b1-2)Man(a1-3)[Fuc(a1-2)Gal(b1-3)[Fuc(a1-4)]GlcNAc(b1-2)Man(a1-3)]Man(b1-4)GlcNAc(b1-4)GlcNAc
# Summary of the method: as §1
# [19] = target: Fuc(a1-2)Gal(b1-3)[Fuc(a1-4)]GlcNAc(b1-2)Man(a1-3)[Fuc(a1-2)Gal(b1-3)[Fuc(a1-4)]GlcNAc(b1-2)Man(a1-6)]Man(b1-4)GlcNAc(b1-4)[Fuc(a1-6)]GlcNAc(b1-4)[Fuc(a1-6)]GlcNAc
# Summary of the method: as §1
# [20] = target: Fuc(a1-2)Gal(b1-3)[Fuc(a1-4)]GlcNAc(b1-3)[Fuc(a1-3)[Gal(b1-4)]GlcNAc(b1-6)]Gal(b1-4)Glc
# Summary of the method: as §1
# [21] = target: Fuc(a1-2)Gal(b1-3)[Fuc(a1-4)]GlcNAc(b1-3)[Gal(b1-4)GlcNAc(b1-6)]Gal(b1-4)Glc
# Summary of the method: as §1
# [22] = target: Fuc(a1-2)Gal(b1-4)Glc
# Summary of the method: as §1
# [23] = target: Fuc(a1-2)Gal(b1-4)Glc6S
# Summary of the method: as §1
# [24] = target: Fuc(a1-2)Gal(b1-4)GlcNAc
# Summary of the method: as §1
# [25] = target: Fuc(a1-2)Gal(b1-4)GlcNAc(b1-2)Man
# Summary of the method: as §1
# [26] = target: Fuc(a1-2)Gal(b1-4)GlcNAc(b1-2)Man(a1-3)[Fuc(a1-2)Gal(b1-4)GlcNAc(b1-2)Man(a1-6)]Man(b1-4)GlcNAc(b1-4)GlcNAc
# Summary of the method: as §1
# [27] = target: Fuc(a1-2)Gal(b1-4)GlcNAc(b1-2)Man(a1-3)[Fuc(a1-2)Gal(b1-4)GlcNAc(b1-2)Man(a1-6)]Man(b1-4)GlcNAc(b1-4)[Fuc(a1-6)]GlcNAc
# Summary of the method: as §1
# [28] = target: Fuc(a1-2)Gal(b1-4)GlcNAc(b1-2)[Fuc(a1-2)Gal(b1-4)GlcNAc(b1-4)]Man(a1-3)[Fuc(a1-2)Gal(b1-4)GlcNAc(b1-2)Man(a1-6)]Man(b1-4)GlcNAc(b1-4)GlcNAc
# Summary of the method: as §1
# [29] = target: Fuc(a1-2)Gal(b1-4)GlcNAc(b1-3)Gal(b1-4)GlcNAc
# Summary of the method: as §1
# [30] = target: Fuc(a1-2)Gal(b1-4)GlcNAc(b1-3)Gal(b1-4)GlcNAc(b1-2)Man(a1-3)[Fuc(a1-2)Gal(b1-4)GlcNAc(b1-3)Gal(b1-4)GlcNAc(b1-2)Man(a1-6)]Man(b1-4)GlcNAc(b1-4)GlcNAc
# Summary of the method: as §1
# [31] = target: Fuc(a1-2)Gal(b1-4)GlcNAc(b1-3)Gal(b1-4)GlcNAc(b1-3)Gal(b1-4)GlcNAc
# Summary of the method: as §1
# [32] = target: Fuc(a1-2)Gal(b1-4)GlcNAc(b1-3)GalNAc
# Summary of the method: as §1
# [33] = target: Fuc(a1-2)Gal(b1-4)GlcNAc(b1-3)[Fuc(a1-2)Gal(b1-4)GlcNAc(b1-6)]GalNAc
# Summary of the method: as §1
# [34] = target: Fuc(a1-2)Gal(b1-4)GlcNAc(b1-3)[Fuc(a1-3)[Gal(b1-4)]GlcNAc(b1-6)]Gal(b1-4)Glc
# Summary of the method: as §1
# [35] = target: Fuc(a1-2)Gal(b1-4)GlcNAc(b1-6)GalNAc
# Summary of the method: as §1
# [36] = target: Fuc(a1-2)Gal(b1-4)GlcNAc6S
# Summary of the method: as §1
# [37] = target: Fuc(a1-2)Gal(b1-4)[Fuc(a1-3)]GlcNAc
# Summary of the method: as §1
# [38] = target: Fuc(a1-2)Gal(b1-4)[Fuc(a1-3)]GlcNAc(b1-2)Man(a1-3)[Fuc(a1-2)Gal(b1-4)[Fuc(a1-3)]GlcNAc(b1-2)Man(a1-6)]Man(b1-4)GlcNAc(b1-4)[Fuc(a1-6)]GlcNAc
# Summary of the method: as §1
# [39] = target: Fuc(a1-2)Gal(b1-4)[Fuc(a1-3)]GlcNAc(b1-2)[Fuc(a1-2)Gal(b1-4)[Fuc(a1-3)]GlcNAc(b1-4)]Man(a1-3)[Fuc(a1-2)Gal(b1-4)[Fuc(a1-3)]GlcNAc(b1-2)Man(a1-6)]Man(b1-4)GlcNAc(b1-4)GlcNAc
# Summary of the method: as §1
# [40] = target: Fuc(a1-2)Gal(b1-4)[Fuc(a1-3)]GlcNAc(b1-3)Gal(b1-4)[Fuc(a1-3)]GlcNAc
# Summary of the method: as §1
# [41] = target: Fuc(a1-2)Gal(b1-4)[Fuc(a1-3)]GlcNAc(b1-3)Gal(b1-4)[Fuc(a1-3)]GlcNAc(b1-3)Gal(b1-4)[Fuc(a1-3)]GlcNAc
# Summary of the method: as §1
# [42] = target: Fuc(a1-2)Gal(b1-4)[Fuc(a1-3)]GlcNAc(b1-3)GalNAc
# Summary of the method: as §1
# [43] = target: Fuc(a1-2)Gal(b1-4)[Fuc(a1-3)]GlcNAc(b1-3)[Neu5Ac(a2-6)Gal(b1-4)GlcNAc(b1-6)]Gal(b1-4)Glc
# Summary of the method: as §1
# [44] = target: Fuc(a1-2)Gal3S(b1-4)GlcNAc
# Summary of the method: as §1
# [45] = target: Fuc(a1-2)Gal6S(b1-3)GlcNAc
# Summary of the method: as §1
binder,measurement,setting,value
Clrb (Mus musculus) (protein) ITGATKTEQIPVNKTYAACPQNWIGVENKCFYFSEYPSNWTFAQAFCMAQEAQLARFDNQDELNFLMRYKANFDSWIGLHRESSEHPWKWTDNTEYNNTIPIRGEERFAYLNNNGISSTRIYSLRMWICSKLNSYSLHCQTPFFPSGTKHHHHHHHHG,glycan array binding signal (z-score),[1],-0.291
same,glycan array binding signal (z-score),[2],-0.192
same,glycan array binding signal (z-score),[3],-0.421
same,glycan array binding signal (z-score),[4],-0.297
same,glycan array binding signal (z-score),[5],-0.518
same,glycan array binding signal (z-score),[6],-0.297
same,glycan array binding signal (z-score),[7],-0.337
same,glycan array binding signal (z-score),[8],-0.121
same,glycan array binding signal (z-score),[9],-0.336
same,glycan array binding signal (z-score),[10],0.033
same,glycan array binding signal (z-score),[11],-0.418
same,glycan array binding signal (z-score),[12],-0.555
same,glycan array binding signal (z-score),[13],-0.265
same,glycan array binding signal (z-score),[14],-0.45
same,glycan array binding signal (z-score),[15],-0.377
same,glycan array binding signal (z-score),[16],-0.348
same,glycan array binding signal (z-score),[17],-0.043
same,glycan array binding signal (z-score),[18],-0.353
same,glycan array binding signal (z-score),[19],-0.312
same,glycan array binding signal (z-score),[20],-0.289
same,glycan array binding signal (z-score),[21],-0.316
same,glycan array binding signal (z-score),[22],-0.258
same,glycan array binding signal (z-score),[23],-0.545
same,glycan array binding signal (z-score),[24],-0.172
same,glycan array binding signal (z-score),[25],-0.421
same,glycan array binding signal (z-score),[26],0.014
same,glycan array binding signal (z-score),[27],-0.198
same,glycan array binding signal (z-score),[28],-0.327
same,glycan array binding signal (z-score),[29],-0.474
same,glycan array binding signal (z-score),[30],-0.291
same,glycan array binding signal (z-score),[31],-0.289
same,glycan array binding signal (z-score),[32],-0.451
same,glycan array binding signal (z-score),[33],-0.296
same,glycan array binding signal (z-score),[34],-0.357
same,glycan array binding signal (z-score),[35],-0.391
same,glycan array binding signal (z-score),[36],-0.2
same,glycan array binding signal (z-score),[37],-0.327
same,glycan array binding signal (z-score),[38],-0.331
same,glycan array binding signal (z-score),[39],-0.314
same,glycan array binding signal (z-score),[40],-0.259
same,glycan array binding signal (z-score),[41],-0.391
same,glycan array binding signal (z-score),[42],-0.388
same,glycan array binding signal (z-score),[43],-0.359
same,glycan array binding signal (z-score),[44],-0.31
same,glycan array binding signal (z-score),[45],-0.266
